We go through 87 sequences from the supplement of paper PMC11417369.

± gives the standard deviation of the averaged measurements. The list shows a part of the results.

For the test, the system named is PfAP2-I AP2 domain 3 (GST-tagged). The test can be described thus: gcPBM binding intensity (ln(normalized median fluorescence intensity)); higher = stronger DNA binding. An outline of the steps: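 An Agilent 4 × 180k array of primer-extended double-stranded 36-bp intergenic genomic probes, with negative controls, was incubated for 1 h with GST-tagged P. falciparum DNA-binding domains expressed in E. coli. Alexa488 anti-GST antibody detected bound protein, scanned at 488 nm. Binding intensity is the highest Masliner-normalised natural-log median intensity across replicate spots of either probe orientation.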
For “TTTTTTCATATAAATACATGCACACAAAAATATCAA [TGCATGCA_site602]”, the “gcPBM binding intensity (ln)” value stood at 8.61 ± 0.13.
“AATAACAAAATATTAACACACATAACATATTATAAA [CACACA_site2803]”: the “gcPBM binding intensity (ln)” value is 7.55 ± 0.47.
Take “TAATGTTTTTTTTGTTTACCAAAAATAATACATTAT [CACACA_negctrl_site203]”: the “gcPBM binding intensity (ln)” value stood at 7.49 ± 0.47.
As for “ATATATATATATGTGTGTACATATATGTGGATGGAT [XGTACX_site6240]”, the “gcPBM binding intensity (ln)” value was determined as 9.45 ± 0.25.
Take “AGGTAGAAAAAAGACACACACATTATGTATATATAT [CACACA_site377]”: the “gcPBM binding intensity (ln)” value is 8.39 ± 0.54.
Regarding “TTATAGGATCAAGCGCGTACATATCTTTATAAAAGA [XGTACX_site5775]”, the “gcPBM binding intensity (ln)” value stood at 7.83 ± 0.55.
For “ACATAAGAACATATTTGTACGTATATAAATTAAATA [XGTACX_site6127]”, the “gcPBM binding intensity (ln)” value was 8.11 ± 0.22.
Turning to “ACAACAAAAATAAGCACACACAAATATACATACATA [CACACA_site7664]”, the “gcPBM binding intensity (ln)” value amounted to 8.23 ± 0.26.
Take “TTATATATTAATAGTAGTACTATATTGAATCACCCC [XGTACX_site2868]”: the “gcPBM binding intensity (ln)” value is 8.34 ± 0.13.
As to “TTATTTTTGTTTTGAAGTACAAAAAAATATATTCTT [XGTACX_site6416]”, the “gcPBM binding intensity (ln)” value was found to be 7.63 ± 0.34.
Next, “AAAATTTATATAAGCACACAAATATATATTTATATC [CACACA_site3291]”: 7.96 ± 0.49; “AGTTTATAGTGATATTGTACATATATATATATATAT [XGTACX_site572]”: 9.21 ± 0.27; “TATTTATACTCAACTTTCTGTTATTCCAACTTTTTT [XGTACX_negctrl_site410]”: 7.73 ± 0.52.
Regarding “TATACTTTATATATTTTGTATATATATTTTTTTTAT [TGCATGCA_negctrl_site530]”, the “gcPBM binding intensity (ln)” value is 7.5 ± 0.28.
The result for “TCTTGTTATTTAAATGCATGTTGATTTTAAAAAATT [TGCATGCA_site840]” reads 8.13 ± 0.61.
“AATAAAAAGTAATAATAACGTATAATTTATTATACT [TGCATGCA_negctrl_site414]”: the “gcPBM binding intensity (ln)” value is 7.24 ± 0.49.
In the case of “GTAAATTATATAACAAATAAAAATGTACATATATAT [CACACA_negctrl_site408]”, the “gcPBM binding intensity (ln)” value was 8.08 ± 0.62.
Regarding “ATATATATAGATTGTACACACATTTATGCATATATA [CACACA_site3222]”, the “gcPBM binding intensity (ln)” value worked out at 8.55 ± 0.53.
For the sequence ACGCAATATTAACAAGTGCATTATAACACATAACAT, the “gcPBM binding intensity (ln)” value came to 11.3 ± 0.61.
The result for “ATAACATTCTATGTTGCACACAAAGAGAAAAATTTA [CACACA_site9322]” reads 8.94 ± 0.12; that for “ATATATATATATTATACACACAAAAATATTTTGTAT [CACACA_site266]”, 9.14 ± 0.33; that for “ATCTATGTTCCTTTTACACACATAATCTTTTTTTTA [CACACA_site5468]”, 8.29 ± 0.69.
The result for “CGTGGGAGCAGACACACACACACACGCATATTTATA [CACACA_site6290]” reads 7.71 ± 0.48.
The result for “ATGGACAAAAAATATATACACACGAGGAAACCAACA [CACACA_site3726]” reads 8.11 ± 0.87.
“CATGCATACTACATCTGTACACATACATTATATTTA [XGTACX_site2495]”: the “gcPBM binding intensity (ln)” value amounted to 8.16 ± 0.39.
Next, “TTTTGTTTTTACGAATACTTTTTTAATTTTATTTAT [TGCATGCA_negctrl_site395]”: 7.5 ± 0.56; “ATAGTTATTTTATAGCGTACACAATAAATATATAAA [XGTACX_site4445]”: 8.1 ± 0.34.
Turning to “CACAGAAATAGAGATACACACACACCGATATTTATG [CACACA_site9313]”, the “gcPBM binding intensity (ln)” value worked out at 7.96 ± 0.48.
Next, “GTCATATATTATAATAGTACATAAATAATTGATGCC [XGTACX_site3567]”: 7.89 ± 0.35; “AAATTTTCTTTTAAGTGTACGAAATTTAGTATTTCA [XGTACX_site7819]”: 7.81 ± 0.45.
Next, “TAAACAGTATGCAACGCATGCGTTGTTATATATAAA [TGCATGCA_site232]”: 8.03 ± 0.83; “ATGTATTTATTATTTAGTACACATTATTTTCTTATA [XGTACX_site6365]”: 8.07 ± 0.33; “TTTTTGTTTGTTCACGACTACATTATGTCATAAATG [CACACA_negctrl_site597]”: 7.75 ± 0.61.
The result for “TATATATAAATATATACACACATGAAAATAAATAAA [CACACA_site2514]” reads 7.67 ± 0.45.
In the case of “ATTTTTTTTTTTTTTTTTTTATTCTTAATTCATATA [CACACA_negctrl_site342]”, the “gcPBM binding intensity (ln)” value is 7.66 ± 0.42.
The result for “AGTAGATATAATTATAGTACTTTGATGTTTTCTTTA [XGTACX_site5038]” reads 7.5 ± 0.35; that for “ATATGATAAATTATATGTACTTAAAATATATTATAA [XGTACX_site5904]”, 7.72 ± 0.3; that for “TGGCAAAATAGGCACACACACATATACATCTATATT [CACACA_site6626]”, 8.25 ± 0.4.
As for “TTTTTTTTTAGAAAAACATGCATGTCCTAAAAATAA [TGCATGCA_site684]”, the “gcPBM binding intensity (ln)” value is 7.8 ± 0.49.
The result for “AAAAAAAAAAAAAAAAAAAAAAAAACAATGAATTTA [GTGCAC_negctrl_site698]” reads 9.88 ± 0.014; that for “AGATATTAAAACGTTACACACATTTATATATCTTCT [CACACA_site908]”, 7.59 ± 0.7.
For “TTCCAAAATTGCATTTGTACCCAAAAAATGTATACG [XGTACX_site7680]”, the “gcPBM binding intensity (ln)” value was 7.8 ± 0.47.
The result for “GTAAGTTTGAATACACGTACAAATTTATTAAAGTCC [XGTACX_site6722]” reads 7.89 ± 0.44; that for “ATATTATTAATTTATAGTACTCATTTTTTTTTTTTT [XGTACX_site3536]”, 7.69 ± 0.55; that for “ATCAGTCGGCAGGACAGTACACAGTAGCCAGGAAAT [XGTACX_site2003]”, 7.82 ± 0.72.
Next, “GCTTTTTATTTTTACCGTACATTATATATGTATATA [XGTACX_site808]”: 8.5 ± 0.75; “AACGCGAACAATTTATAGATAACTTTTAATTATTAT [GTGCAC_negctrl_site179]”: 7.25 ± 0.64.
The result for “ATATATATATTTGTGTGTACATATTAATTTGTATGA [XGTACX_site4047]” reads 8.93 ± 0.11; that for “ATGGTATATCCAAATAAACACACGTAAATACATAAA [CACACA_site1682]”, 7.79 ± 0.54.
In the case of “ATACATTTTTGTAAAAGTACATATACATGCCCCCTT [XGTACX_site1367]”, the “gcPBM binding intensity (ln)” value came to 9.145 ± 0.049.
Next, “AATATATATATAGGATGTACACATAATTCAAATACA [XGTACX_site6368]”: 8.02 ± 0.41; “TATATATATATAAACTGTACTATTTTATGTTAAAAG [XGTACX_site3630]”: 9.36 ± 0.21.
Next, “ATTTAATACAAATACACACACAAATATATACATATA [CACACA_site3747]”: 7.82 ± 0.43; “TTTAGCCAATTTTTAAAGTTTAAAAAAGAAAAAAGA [CACACA_negctrl_site118]”: 7.47 ± 0.57; “TATTAAAAATACATATGTACTCATAGCATAAAACAT [XGTACX_site8686]”: 7.96 ± 0.42.
In the case of “TTTTGGCTGATCAGATTTAACAAAAAAAAAAAAAAA [CACACA_negctrl_site671]”, the “gcPBM binding intensity (ln)” value was 8.03 ± 0.79.
Next, “CAAATGTAGAAAATGTGTACATAAAAAAAAAAAAAA [XGTACX_site8276]”: 8.22 ± 0.13; “AGTCAATTTTGTGTGTCAACATTTATATAAAGAATG [TGCATGCA_negctrl_site400]”: 7.96 ± 0.26.
The result for “TGTGAAAATTATGGGGCATGCAATACTTTAAAAATA [TGCATGCA_site653]” reads 7.98 ± 0.72; that for “CAAATATATATTTTCTGTACAAATACAATTAATACT [XGTACX_site2694]”, 7.8 ± 0.3; that for “CCTTCAATTTACATAACACACATTTAACCATAATAA [CACACA_site2394]”, 8.17 ± 0.34.
In the case of “ACTAATTACTATAAAACACACATATATATATATATA [CACACA_site2591]”, the “gcPBM binding intensity (ln)” value was 9.63 ± 0.49.
Next, “TTAGTCGAATGATGTACACACATACAAAACATTTAT [CACACA_site6076]”: 7.93 ± 0.43; “AAAAAAAAAAAAAAAAAAAAAAAAAAAAGAAAAAAG [GTGCAC_negctrl_site583]”: 9.93 ± 0.099.
The result for “AGAAAATATTTTGGTTGTACAGGCGATTTATATGTT [XGTACX_site7253]” reads 8.06 ± 0.69; that for “TTATATTTTCAGAATAGTACACATATATACATATAT [XGTACX_site2519]”, 7.82 ± 0.38.
The result for “AAAAATTCTTGGCGCACACACTTTAAAAATTAAAAA [CACACA_site4498]” reads 8.7 ± 0.17.
As to “TTATAAAAGAAAAAAAAAAAAAAAAAAAAAAAAAAA [CACACA_negctrl_site1006]”, the “gcPBM binding intensity (ln)” value came to 8.22 ± 0.86.
Next, “GATCATTTAAAATAAGTAATATTTTTTTTACTTTTG [TGCATGCA_negctrl_site602]”: 7.25 ± 0.6.
The result for “CATATATGTTATATTTAACACACATATAAGGTACAT [CACACA_site8105]” reads 7.8 ± 0.42; that for “TTTATAATTTATATCACACATATATCTGTAATAAAT [CACACA_site5048]”, 7.55 ± 0.51.
As for “ATCTCTGTAAAGATCACACATATATTTTTGTTATAT [CACACA_site5094]”, the “gcPBM binding intensity (ln)” value came out at 7.71 ± 0.57.
With “TATATATTATATATATGTACATATTGTTGTGTATAT [XGTACX_site767]”, the “gcPBM binding intensity (ln)” value turned out to be 7.92 ± 0.43.
The result for “TTATTACACACATATGTGCACATATAAAAGTACACG [GTGCAC_site9581]” reads 9.965 ± 0.007; that for “CAGCTCTTAAAAATTACACACATATACACATATATA [CACACA_site9073]”, 7.5 ± 0.54.
Next, “TATATATATATATATACACACATTTTTAATGATAAA [CACACA_site2695]”: 9.34 ± 0.33.
Next, “TATAAATACAATTCACAAGAGATCATGTATCAAACC [CACACA_negctrl_site1219]”: 7.53 ± 0.61.
On to “TTTCTAGTTACAAGAGTGCATAATATATAAAAATAA [GTGCAC_site9874]”, for which the “gcPBM binding intensity (ln)” value was 10.9 ± 0.56.
The result for “ATATAATAAATATGTTGTACTATAAAAAATAGCCAT [XGTACX_site4710]” reads 7.76 ± 0.34.
Next, “TATTTTTAACAGTGCACACATAACTTAATTATATGT [CACACA_site2194]”: 10.5 ± 0.23; “GAAAGAAAATATTAAGTGCATATTTTAATGATACAA [GTGCAC_site9712]”: 9.02 ± 0.2.
The result for “ATAAAAATAAAAAAAACACACATACCTTATTTTTGT [CACACA_site5452]” reads 7.8 ± 0.57; that for “GTGCATAAATCATACACACACACATATATATATATA [CACACA_site2423]”, 10.4 ± 0.67.
Take “AAATATAAATGGTAATACACATACACACACACATAC [XGTACX_negctrl_site459]”: the “gcPBM binding intensity (ln)” value worked out at 8.43 ± 0.16.
The result for “TATAAAAAATTATGTTGTACGTAATATAAAATTTGT [XGTACX_site7122]” reads 8.09 ± 0.34.
With “AATCAAAATAAATTAACACACAATTTTAATATTGTT [CACACA_site10]”, the “gcPBM binding intensity (ln)” value is 7.58 ± 0.47.
On to “ATTTTCCATATATTTTGTACATATGTATATTTTCCC [XGTACX_site7795]”, for which the “gcPBM binding intensity (ln)” value was found to be 8.18 ± 0.84.
